The CheMixHub viscosity set
± gives the uncertainty stated by the source. The source gives many values for each of these; only a part stands here.

Test: xn = mol fraction of the nth substance listed
Conditions: 318.15 K, 101 kPa

SMILES	viscosity (x1 = 0.0733) [mPa·s]	viscosity (x1 = 0.1427) [mPa·s]	viscosity (x2 = 0.2529) [mPa·s]	viscosity (x2 = 0.2984) [mPa·s]	viscosity (x2 = 0.3449) [mPa·s]	viscosity (x2 = 0.3926) [mPa·s]	viscosity (x2 = 0.4413) [mPa·s]	viscosity (x2 = 0.4912) [mPa·s]	viscosity (x2 = 0.5423) [mPa·s]	viscosity (x2 = 0.5946) [mPa·s]	viscosity (x2 = 0.6483) [mPa·s]	viscosity (x2 = 0.7032) [mPa·s]	viscosity (x2 = 0.7596) [mPa·s]	viscosity (x2 = 0.8174) [mPa·s]	viscosity (x2 = 0.8767) [mPa·s]	viscosity (x2 = 0.9375) [mPa·s]
NCCN + OCCCCO	31.1 ± 1.5	31.2 ± 1.6	–	–	–	–	–	–	–	–	–	–	–	–	–	–
NCCN + CC(O)CO	–	–	2.88 ± 0.06	3.62 ± 0.08	4.57 ± 0.1	5.67 ± 0.12	7.09 ± 0.15	8.75 ± 0.18	10.8 ± 0.2	12.6 ± 0.3	14.2 ± 0.3	15.6 ± 0.3	16.7 ± 0.4	17.2 ± 0.4	17.2 ± 0.4	16.5 ± 0.3
